Experimental data reported in PMC9911399, “Two distinct binding modes provide the RNA-binding protein RbFox with extraordinary sequence specificity”.
Changes are numbered by the printed parent chain; changes in the protein carry UniProt numbers. The list shows a part of the results.

T1: RBFOX1 RRM (Homo sapiens, UniProt Q9NWB1 109-208)
T1 sequence: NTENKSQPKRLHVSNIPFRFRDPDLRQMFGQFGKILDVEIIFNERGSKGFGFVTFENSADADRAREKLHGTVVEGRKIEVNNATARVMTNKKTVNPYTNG

B1: AGAUACC (DNA:RNA)
RNA: GGGAGACCGGAAUUCAGAUUGUCCAGAUACCUUAAAUCCCGUCGUAGCCACCA
DNA 1: CAATCTGAATTCCGGTCTCCC
DNA 2: TGGTGGCTACGACGGGATT
B2: CUGGCCG (DNA:RNA)
RNA: B1 RNA with A25C, G26U, A27G, U28G, A29C, C31G
DNA 1: CAATCTGAATTCCGGTCTCCC
DNA 2: TGGTGGCTACGACGGGATT
B3: CACCCCA (DNA:RNA)
RNA: B1 RNA with A25C, G26A, A27C, U28C, A29C, C31A
DNA 1: CAATCTGAATTCCGGTCTCCC
DNA 2: TGGTGGCTACGACGGGATT
B4: GUUAACC (DNA:RNA)
RNA: B1 RNA with A25G, G26U, A27U, U28A
DNA 1: CAATCTGAATTCCGGTCTCCC
DNA 2: TGGTGGCTACGACGGGATT
B5: GGCAUAA (DNA:RNA)
RNA: B1 RNA with A25G, A27C, U28A, A29U, C30A, C31A
DNA 1: CAATCTGAATTCCGGTCTCCC
DNA 2: TGGTGGCTACGACGGGATT
B6: AUGCUUC (DNA:RNA)
RNA: B1 RNA with G26U, A27G, U28C, A29U, C30U
DNA 1: CAATCTGAATTCCGGTCTCCC
DNA 2: TGGTGGCTACGACGGGATT
B7: CCACGUC (DNA:RNA)
RNA: B1 RNA with A25C, G26C, U28C, A29G, C30U
DNA 1: CAATCTGAATTCCGGTCTCCC
DNA 2: TGGTGGCTACGACGGGATT
B8: GUGAUCA (DNA:RNA)
RNA: B1 RNA with A25G, G26U, A27G, U28A, A29U, C31A
DNA 1: CAATCTGAATTCCGGTCTCCC
DNA 2: TGGTGGCTACGACGGGATT
B9: UCCUAGG (DNA:RNA)
RNA: B1 RNA with A25U, G26C, A27C, C30G, C31G
DNA 1: CAATCTGAATTCCGGTCTCCC
DNA 2: TGGTGGCTACGACGGGATT

Each binder was assayed against T1, RBFOX1 RRM (assay: EMSA; HiTS-Eq, 1 nM pool, 10 min; buffer printed only for the single-RNA assays: 10 mM Tris pH 7.5, 150 mM NaCl, 3.4 mM EDTA, 0.001% NP-40, 30 C). Conditions: tags: His6 N-terminal (pET28a); label: 5' 32P.
Outline: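 Relative association constants, normalised to the cognate motif, were derived by comparing read counts of each RNA species with those of the control reaction. The RNA sequenced was the free fraction, separated by 8% native PAGE after a 10 min equilibration in 50 µL of 1 nM 5′-radiolabelled RNA (7 randomized nucleotides) with increasing concentrations of purified wild-type or mutant RbFox RRM.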

First: B1
Second: B2
The binding signal of the first is lower: 0.00702 KA relative to UGCAUGU for the first, 0.0234 KA relative to UGCAUGU for the second.

First: B3
Second: B4
The binding signal of the first is lower: 0.000718 KA relative to UGCAUGU for the first, 0.00212 KA relative to UGCAUGU for the second.

First: B5
Second: B6
The binding signal of the first is lower: 0.00272 KA relative to UGCAUGU for the first, 0.0112 KA relative to UGCAUGU for the second.

Compared with B7, B8 is higher in binding signal: 0.00535 KA relative to UGCAUGU for the first, 0.00832 KA relative to UGCAUGU for the second.

B9 was tested, and the binding signal was 0.0095 KA relative to UGCAUGU.
